Kd and kon data for one molecule are collected here from PMC7076219, “Functional binding of E-selectin to its ligands is enhanced by structural features beyond its lectin domain” (The Journal of Biological Chemistry, 2020).

The assay concerns the target T1, E-S6 (monomeric full-length extracellular mouse E-selectin) (mouse, UniProt Q00690 22-557).
T1 construct: mouse E-selectin, extracellular region as in E-S6-IgG without the Fc region: lectin domain, EGF-like domain and six SCR domains; also called monomer E-selectin; monomeric full-length E-S6; source: silkworm larvae (recombinant BmNPV), from the serum, purified (HisTrap Excel, StrepTrap HP); not shown: TEV cleavage site, C-terminal, kept; His8, C-terminal, kept; Strep II, C-terminal, kept
T1 sequence (looked up): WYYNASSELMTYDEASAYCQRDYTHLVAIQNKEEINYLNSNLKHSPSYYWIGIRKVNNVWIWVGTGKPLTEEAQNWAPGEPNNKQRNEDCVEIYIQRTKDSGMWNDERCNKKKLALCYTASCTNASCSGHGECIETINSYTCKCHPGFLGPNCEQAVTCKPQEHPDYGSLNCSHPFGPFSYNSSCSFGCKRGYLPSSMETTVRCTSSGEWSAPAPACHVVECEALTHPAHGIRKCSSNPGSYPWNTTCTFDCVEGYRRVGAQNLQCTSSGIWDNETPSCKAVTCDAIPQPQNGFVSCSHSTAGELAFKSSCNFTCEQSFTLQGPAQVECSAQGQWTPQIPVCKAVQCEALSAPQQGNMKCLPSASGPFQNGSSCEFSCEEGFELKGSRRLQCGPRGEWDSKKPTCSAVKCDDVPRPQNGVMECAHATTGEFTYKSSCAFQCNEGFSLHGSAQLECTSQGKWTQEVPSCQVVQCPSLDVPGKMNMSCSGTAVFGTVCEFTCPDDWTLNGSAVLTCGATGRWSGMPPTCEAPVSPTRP
The assay is described as follows: SPR; Biacore T-100, CM5 chip, 25 °C; CD44/HCELL captured from KG1a lysate by immobilised Hermes-3; E-selectin proteins injected in sequential concentrations at 20 ul/min, 90 s each; running buffer 50 mM Tris pH 8.0, 1% Triton X-100, 50 mM NaCl, 1 mM CaCl2; isotype control subtracted; kon calculated from KD and koff. The conditions noted are these: one partner purified.

B1: CD44/HCELL (hematopoietic cell E- and/or L-selectin ligand) (natural protein, human (endogenous in KG1a))
chain: [about 200 residues not given here]ATRDQDTFHPSGGSHTTHGSESDGHSHGSQEGGANTTSGPIRTPQIPEWLIILASLLALALILAVCIAVNSRRRCGQKKKLVINSGNGAVEDRKPSGLNGEASKSQEMVHLVNKESSETPDQFMTADETRNLQNVDMKIGV
notes: A glycosylated ligand; source: endogenous, KG1a lysate; immunoprecipitated with anti-CD44 (clone 515) for blots, captured on the chip by Hermes-3 for SPR
As for B1, the dissociation constant (Kd) is 2040 nM and the kon was 110 M⁻¹ s⁻¹.

In general, Kd refers to the equilibrium constant for the complex coming apart. The term kon denotes a measure of how fast the partners come together.
